Results reported in ChEMBL document CHEMBL4888484, “Replenishing the malaria drug discovery pipeline: Screening and hit evaluation of the MMV Hit Generation Library 1 (HGL1) against asexual blood stage Plasmodium falciparum ,using a nano luciferase reporter read-out” (2022).
Among all 150,000 compounds or so, about 540 (0.36%) showed an effect of 50% or more. The list shows a part of the results.

These compounds were tested on Plasmodium falciparum (assay: Primary screen in NF54 nanoGlo assay, in single point, at 2uM, 72h; a lower Z score goes with more inhibition). Details: timepoint 72 hour.
Type: functional, Erythrocyte

Question: With `C[C@H](NS(=O)(=O)c1ccc(Cl)s1)C(=O)NCc1cscn1` as the compound, how does the “% Inhibition” value read?
Answer: Its value is 0%.

Question: And the Z score?
Answer: Its Z score is -0.01.

Question: Which “% Inhibition” value does the source give for `COCCN(Cc1c(C(C)C)nn(-c2ccccc2)c1Oc1cccc(F)c1)C(=O)C1CCCC1` here?
Answer: The value was 0%.

Question: And the Z score?
Answer: Its Z score is 0.03.

Question: What does the source list for `CCC(=O)N[C@@H](C)COc1ccccc1`?
Answer: % Inhibition: -10%; Z score: 1.55

Question: Which results are given for `CC(C)c1nc([C@@H](NC(=O)OC(C)(C)C)C2CC2)no1`?
Answer: % Inhibition: -15%; Z score: 2.83

Question: With `CCn1ncc(C(=O)N2CC[C@@]3(O)CCCC[C@H]3C2)c1C` as the compound, how does the “% Inhibition” value read?
Answer: The value was 14%.

Question: What about the Z score of the same compound?
Answer: The Z score was -1.81.

Question: For `CCCc1n[nH]cc1C(=O)N1C[C@@H]2[C@@H]3CC[C@@H](C3)[C@@H]2C1`, which “% Inhibition” value is on record?
Answer: The value was -26%.

Question: What about the Z score of the same compound?
Answer: The Z score was 3.38.

Question: Which “% Inhibition” value does the source give for `CC[C@](C)(C#N)C(=O)Nc1ccc(F)cc1` here?
Answer: Its value is 0%.

Question: And the Z score?
Answer: The Z score was 0.01.

Question: `CC(C)COc1cncc(N2CC[C@H](N3CC=CC3)C2)n1` was tested. Which “% Inhibition” value did it give?
Answer: The value was 5%.

Question: What about the Z score of the same compound?
Answer: Its Z score is -0.87.

Question: What does the source list for `CCN(Cc1noc(C)n1)C(=O)Cc1ccncc1`?
Answer: % Inhibition: -7%; Z score: 0.64

Question: `Cc1ccc(C(C)(C)NC(=O)CCOc2ccccc2)cn1` was tested. Which “% Inhibition” value did it give?
Answer: Its value is -8%.

Question: And the Z score?
Answer: Its Z score is 0.8.

Question: For `Cc1nc(N[C@H]2CCCc3ccccc32)c2cccnc2n1`, which “% Inhibition” value is on record?
Answer: Its value is -12%.

Question: And the Z score?
Answer: The Z score was 2.24.

Question: Which results are given for `O=C(NCc1sc2ccccc2c1Cl)C1CCOCC1`?
Answer: % Inhibition: -9%; Z score: 1.26

Question: With `O=C(C[C@H]1CCS(=O)(=O)C1)N1CCN(c2ncccn2)CC1` as the compound, how does the “% Inhibition” value read?
Answer: The value was -11%.

Question: And the Z score?
Answer: Its Z score is 2.29.

Question: With `CC[C@H](c1ccccc1)c1nc(-c2cccc(-c3ccnn3CC)c2)no1` as the compound, how does the “% Inhibition” value read?
Answer: Its value is -1%.

Question: What about the Z score of the same compound?
Answer: The Z score was 0.15.

Question: For `Cn1cccc1C(=O)N1CCc2[nH]c3ccc(F)cc3c2C1`, which “% Inhibition” value is on record?
Answer: The value was -5%.

Question: What about the Z score of the same compound?
Answer: The Z score was 0.69.

Question: How did the “% Inhibition” value turn out when `CC(C)CN(CC(F)(F)F)C(=O)CN(C)C(=O)[C@H](C)n1cccn1` was run?
Answer: Its value is -1%.

Question: What about the Z score of the same compound?
Answer: The Z score was 0.1.

Question: For `Cc1ccc(CNC(=O)c2ccc(OCc3nnc(C(=O)Nc4ccccc4F)s3)cc2)o1`, which “% Inhibition” value is on record?
Answer: Its value is -13%.

Question: And the Z score?
Answer: Its Z score is 2.37.

Question: Which “% Inhibition” value does the source give for `CC(C)c1nnc(NC(=O)c2cnc(C(C)C)s2)[nH]1` here?
Answer: The value was -10%.

Question: What about the Z score of the same compound?
Answer: Its Z score is 1.35.

Question: How did the “% Inhibition” value turn out when `Cc1cc(F)cc(C(=O)NCc2ccccc2CN2CC[C@H](O)C2)c1` was run?
Answer: Its value is -2%.

Question: What about the Z score of the same compound?
Answer: Its Z score is 0.25.

Question: What does the source list for `COCC(O)CN(Cc1cccc(Cl)c1)CC1CC(c2ccccc2F)=NO1` (stereo not drawn)?
Answer: % Inhibition: -10%; Z score: 1.04

Question: With `CCc1ccc(C(=O)N[C@@H]2COCC[C@@H]2OCCO)s1` as the compound, how does the “% Inhibition” value read?
Answer: The value was -11%.

Question: And the Z score?
Answer: Its Z score is 1.41.

Question: Which “% Inhibition” value does the source give for `O=C(NC[C@H](O)c1ccc(Cl)s1)c1ccsc1` here?
Answer: The value was 32%.

Question: What about the Z score of the same compound?
Answer: The Z score was -0.18.

Question: Which “% Inhibition” value does the source give for `COCCc1noc([C@@H]2CCCN2Cc2cc3c(cc2C)OCO3)n1` here?
Answer: Its value is -10%.

Question: What about the Z score of the same compound?
Answer: Its Z score is 1.91.

Question: For `O=C(CC1(CN2Cc3ccccc3C2=O)CCCCC1)Nc1nc[nH]n1`, which “% Inhibition” value is on record?
Answer: The value was -5%.

Question: What about the Z score of the same compound?
Answer: Its Z score is 0.64.
